In patent US12551573B2, “Compositions and methods for the targeting of PCSK9” (Scribe Therapeutics Inc., priority 2022, dated 2026):
Where two headings read alike, the source gives them in different places.

Test system: HBEGF locus
Type: cell-based, human
Details: high-throughput screen of dXR repression of the HBEGF gene
[1] = abundance of each domain in the library before vs after diphtheria toxin selection, listed domains met p-value <0.01 and log2(fold change) >2
[2] = change in abundance of each domain in the library before and after diphtheria toxin selection

Molecule	Log2 (fold change) [1]	Log2 (fold change) [2]
DOMAIN_21494 (protein, listed as Tursiops truncatus) MDSVTIEDVAVDFTLEEWALLGPSQRKLYRDVMQETLRNLAAVGAKREYHAIEDQYKNQGRKLRTFMVERFCKSKDISLCG	3.783	–
DOMAIN_21588 (protein, listed as Callorhinus ursinus) PQESVTFKDIAVDFTQEEWALLDTSQRKLYRDVMLENISHLVSVGYHLCKSDVISQLEQGVELWREGRGFPQGPNPDRKSG	3.4914	–
DOMAIN_21612 (protein, listed as Aotus trivirgatus) ESVAFEDVAVYFTQNQWASLDPAQRALYREVMLENYANVASLVAFPFPKPALISHLEKGEAPWGPDPWDAEIPSSLSQGDE	3.2931	–
DOMAIN_21626 (protein, listed as Monodelphis domestica) FQESVTFRDVAVDFTQEEWRHLEPAQRALYRDVMLENYENLVSVGIPVSRLDVTSLLERQEAVWKDGGLRDSCLDSLSNKI	3.5419	–
DOMAIN_21632 (protein, listed as Monodelphis domestica) SQELVTFEDVAIYFTEEEWGLLDPAQRKLYRDVMLENFGNVLLLGFPVSKPDIISKLERGEIPCVPFLPRKKILVIRLGGG	2.6551	–
DOMAIN_21658 (protein, listed as Monodelphis domestica) SQEVVTFQDVAVNFTREEWRLLSPPQKELYREVMLENARNLLSVGLPASIEDVISNVEQREALWMLEREGLRSCCPEEDIR	3.1325	–
DOMAIN_21786 (protein, listed as Trichechus manatus) AQEFVMFRDVAVFFSQEEWGHLDPAQRALYREVMLENYSNLVSLGIRFSKPKVISQLQQGEDPWMVDRGVPQGACQGWKSL	3.2249	–
DOMAIN_21822 (protein, listed as Equus caballus) FQGSVMFSDVSIDFSQEEWEYLDLEQRALYRDVMLENYSNLVSLGCFISKPDVISLLEQGKEPWKVVRKGKRRYPDLETRY	3.5647	–
DOMAIN_21823 (protein, listed as Equus caballus) QAELTFEDVAVFLSQEEWGRLDPAQRGLYRDVMLETYRNLVSLGAGPAGPKPGVITQLERGDEPWVLDTQGVEGRERQKVD	3.2474	–
DOMAIN_418 (protein, listed as Pan paniscus) MIEYQIPVSFKDVVVGFTQEEWHQLSPAQRALYRDVMLETYSNLVSVGYEGTKPDVILRLEQEEAPWIGEAACPGCHCWED	–	3.2429
DOMAIN_21844 (protein, listed as Aotus trivirgatus) VQEPVTFKDVAVDFTQEEWGQLDLVQRTLYRDVMLETYGHLLSVGNQIAKPEVISLLEQGEEPWSVEQTCPQRSCPEWMRN	3.467	–
DOMAIN_21862 (protein, listed as Chlorocebus sabaeus) FEELVTFEDVFVDFSPEELSSLSAPQRNLYREVMLENYRNLVFLGYQFSKPDIISRLEVEESHAMETDSRHTVICQGEAHD	2.3797	–
DOMAIN_21889 (protein, listed as Equus caballus) FQGSLSIEDVTVGFTQEEWQHLDPAQRTLYRDVMLENYSHLVSVGYCIPKPEVIFKLERGEQLWILEEESSSQSHPEVCKV	3.6563	–
DOMAIN_21896 (protein, Lipotes vexillifer) TQGLVTFRDVAIEFSQEEWKCLEPAQKDLYKDVTLENFSNLVSLGLSLPKPDVISLLEQGKEPWMVINDMTGPWCPDLESR	2.8718	–
DOMAIN_21900 (protein, listed as Equus caballus) SQGLVTFEDVAVYFSLEEWERLDAAQRDLYKEVMQENYGILVSLGYPIPKPDLIFRLEQGEEPWVPDSPRPEEGDIVTGVY	2.7606	–
DOMAIN_21951 (protein, listed as Equus caballus) PHRLVLFRDVAVDFSQEEWACLDSEQKDLYRDVMLENYSNLVSLGFSSSKADMLSLLEQGKEPWKVVQDVARSQSSDLGSR	2.8972	–
DOMAIN_21985 (protein, listed as Suricata suricatta) PQKSVTFEDVAVYFTQTEWDGLSPAQRALYRDVMLENYGNVASLGFSLLKPAVILQLEGAGELGDPSLLVAGTEVGSQGVW	3.6273	–
DOMAIN_419 (protein, listed as Pan paniscus) MIEYQIPVSFKDVVVGFTQEEWHQLSPAQRALYRDVMLETYSNLVSVGYEGTKPDVILRLEQEEAPWIGEAACPGCHCWGI	–	3.5913
DOMAIN_21988 (protein, listed as Sarcophilus harrisii) VPALVTFRDVAVDFTQEEWRHLEPAQRALHRDVMLENFQNLVSVGLPVSKVDVISLLERGEAPWQPEGGGPPDPCYDYLNW	3.3393	–

Molecule	Log2 (fold change) [1]	Log2 (fold change) [2]
DOMAIN_21993 (protein, Lipotes vexillifer) MAFKDVAVAFTQKEWKLLSPAQRTLYRDVMLENYSHMVSLGIAFPKPKLIIQLEQGDEPWREESESLLDLCPEPRTEFQPH	2.5494	–
DOMAIN_22022 (protein, listed as Tursiops truncatus) AHGSVMFSDVSIDFSQEEWDYLDLEQRDLYRDVMLENYSNLVSLGCFVSKPDVIFLLEQGKEPWKVVRKGRRRYPDLETNY	3.9558	–
DOMAIN_22079 (protein, listed as Trichechus manatus) PQGSVTFEDVAVDFSQEEWELLDPAQRTLYREVMLETCRNLVSLGCSLCQPVAPPHLEQGEAVWMVDRGIPQAFCSDWETR	3.4511	–
DOMAIN_22117 (protein, listed as Sarcophilus harrisii) FHQLVTFEDVAVYLSKEEWKRLNLAQRELYRDVMLENYENLLSLGFPVSKPDIISQLEQRKEAWIVQGPEKRKFSQNAHRD	2.5969	–
DOMAIN_22143 (protein, listed as Pteropus vampyrus) LLTFEDVAISFSEEEWKLMDPAQKMLYSDVMQENYETVISLGLKLKKDTGNDQPISTSTLEIQASGCKVLRKARMKVAQKT	2.6595	–
DOMAIN_22151 (protein, listed as Trichechus manatus) QAAVTFEDVAVLLSREEWCRLAPAQRDLYRDVMLETYRNLISLGTGLTGPKPGVISQLERGHEPWVLDVQSTKGRVDGSDC	3.1615	–
DOMAIN_22158 (protein, Lipotes vexillifer) LQVSVSFEDVAVDFSREEWQQLDSTQRRLYQDVMLENYSHLLSLGCEIPKPEVIFKLEQGEEPWTLEEETPHQSCSDEKFG	2.0562	–
DOMAIN_22166 (protein, listed as Trichechus manatus) FQESVTFEDVAVYFTQSQWASLGPLQRALYREVMLENYANVASLAFPFPKPVLISQLEREEAPLGPDPWETEVLRDICPGG	4.2024	–
DOMAIN_22192 (protein, listed as Trichechus manatus) TQVSLTFDDVAVKLTWEEWQLLDPAQKDLYRDVMLENYSNLVSVGYQVSKPDALSRLERGEPPWSIEDKIHTRTFSGERPY	2.8134	–
DOMAIN_421 (protein, listed as Pan paniscus) MIEYQIPVSFKDVVVGFTQEEWHQLSPAQRALYRDVMLETYSNLVSVGYEGTKPDVILRLEQEEAPWIGEAACPGCHCWGK	–	3.2969
DOMAIN_22220 (protein, listed as Pan paniscus) MMTFRDVAIDFSQEEWKWLQPAQRDLYRCVMLENYGHLVSLGLSISKPDVVSLLEQGKEPWLGKKGISESSGEIKDFSPKN	2.8922	–
DOMAIN_22268 (protein, Lipotes vexillifer) ELVTFRDVVISFSQEEWEYLDSAQRDLYWDVMMENYSNLVSLDLESKYDKKTLSTEKDIIEKNDSQWEVIESSKLVGLANS	2.6534	–
DOMAIN_22280 (protein, listed as Pteropus vampyrus) SQSLVTFGDVAVDFSQEEWERLSSDQRDLYRRVMLENYRNLVSLGLCFSKPDIISSLEQRKELWMAKREVTRGQCPDWKAV	3.1521	–
DOMAIN_22285 (protein, listed as Trichechus manatus) KTQVSLEFNDVAVEFAWEEWQLLDPAQKDLYREVMLENFHNLVSVGCQVGKPDVLFRLEREPPWSLEDEIHSQNFSEIQEV	3.0261	–
DOMAIN_22297 (protein, listed as Sarcophilus harrisii) HQDLVTFKDVAVDFTPEEWGQLVPSQKELYRDVMLENYQNLVWLGLAVSKPDVIYQLEQVGGTWVPEGETLTVSCSDFVTR	2.4261	–
DOMAIN_22322 (protein, listed as Tursiops truncatus) QPQEAVTFKDVEVTFSQDEWGWLDASQRNLYRDVMLENYGNVTSLVGPFTKPALISWLEAREPWGLNVQGAHPKRSPSAAP	3.4452	–
DOMAIN_22366 (protein, listed as Aotus trivirgatus) AIRSVMFSDISIDFSPEEWEYLDLEQKDLYRDVMLENYSNLVSLGCFISKPDVISLLEQGKEPWKVVRKRRRQYPEMLLLL	4.848	–
DOMAIN_451 (protein, listed as Pan paniscus) MVHGSVTFRDVAIDFSQEEWECLQPDQRTLYRDVMLENYSHLISLGSSISKPDVITLLEQEKEPWMVVRKETSRRYPDLES	–	3.0774
